About 540 (0.36%) of roughly 150,000 compounds showed an effect of 50% or more. This is one part of the list.
Test system: Plasmodium falciparum
Assay: Primary screen in NF54 nanoGlo assay, in single point, at 2uM, 72h; a lower Z score goes with more inhibition
Format: functional, Erythrocyte
Settings: timepoint 72 hour

| Structure (SMILES) | % Inhibition | Z score |
| --- | --- | --- |
| CCOc1ccnc(N2CC[C@H](C(C)(C)O)C2)n1 | 2% | -0.38 |
| O=C1C[C@H](Nc2cc(-c3ccccc3)nc3ncnn23)CN1C1CC1 | -13% | 1.53 |
| O=S(=O)(CCNc1ncccc1F)NCC1CCC1 | -8% | 0.84 |
| O=S1(=O)CC[C@H](NS(=O)(=O)c2ccccc2-c2ccno2)C1 | 9% | -1.21 |
| Cc1ccc(C(=O)OCCc2cn3c(n2)CCCC3)c(F)c1 | -5% | 0.75 |
| COCc1noc(C(C)N(C)CC2CCCCO2)n1 (stereo unspecified) | -12% | 2.12 |
| CN(C)c1nc(N2CCC(CCC(=O)N3CCOCC3)CC2)ncc1F | 3% | -0.46 |
| O=C(N[C@@]1(CO)CCOC1)c1nn(-c2ccc(Cl)cc2F)c2c1CCC2 | -18% | 2.37 |
| O=C(NCCO)Nc1ccc(OC(F)(F)F)cc1Br | -13% | 1.66 |
| Cc1nc(C(=O)N2CC[C@@H]3OCc4cccc(c4)Oc4cccc(c4)CCC(=O)N(C)CC(=O)N[C@@H]3C2)cs1 | 8% | -1.12 |
| CCC(CC)NC(=O)C1CC(=O)CC1C(=O)NC(CC)CC (stereo unspecified) | -6% | 0.96 |
| Cc1ccc2oc(N3CCN(C(=O)NCCc4cnn(C)c4)CC3)nc2c1 | 8% | -1.6 |
| CCc1nc(C)sc1CNC1CCN(c2ccc(C)cc2)CC1 | -14% | 1.44 |
| CC(=O)c1nnc(-c2nc3ccccc3s2)n1Nc1ccc(S(N)(=O)=O)cc1 | 10% | -1.75 |
| CC(C)c1cc(C(=O)Nc2cccnc2)no1 | 2% | -0.2 |
| COC(=O)[C@@](C)(NCC(=O)N(CCc1ccccc1)Cc1ccccc1)C1CC1 | -11% | 2.15 |
| COc1ccc(CCNC(=O)c2c(-c3ccccc3)c(-c3ccccc3)n[nH]c2=O)cc1OC | -4% | 0.68 |
| O=C(CN1CCN2CCC[C@H]2C1)Nc1nc(-c2ccc(Br)cc2)cs1 | -43% | 5.02 |
| Cc1nc(C)n(CNC(=O)c2ccc(Br)cc2)n1 | 5% | -0.61 |
| C[C@@H](CN1CCCCC1)c1ncnn1CC(C)(C)O | -17% | 2.3 |
| O=C(Nc1ccc(C2OC(=O)N(Cc3ccc(F)cc3)C2C(=O)Nc2cccc(F)c2)cc1)c1ccc(F)cc1 (stereo unspecified) | -16% | 1.58 |
| Cc1cc(C(=O)NC2(C#N)CCCC2)cnn1 | -5% | 0.87 |

| Structure (SMILES) | % Inhibition | Z score |
| --- | --- | --- |
| Cc1cnc(-c2nc([C@H]3CCC(=O)NC3)no2)c(C)c1 | 6% | -1.15 |
| COc1ccc(-c2cc3n(n2)[C@H](C(=O)Nc2ccccc2)CC(=O)N3)cc1 | 28% | -3.22 |
| COc1cc(C(=O)NCCc2csc(N)n2)ccn1 | -4% | 0.45 |
| Cc1cc(C(=O)Nc2ccc(Cl)cn2)on1 | 6% | -0.86 |
| COCCNC(=O)CNC(=O)C1CC1c1cccc2ccccc12 (stereo unspecified) | 32% | -3.66 |
| Nc1cc(Cl)c(C(F)(F)F)cc1N | 32% | -4.18 |
| CS(=O)(=O)N1CC[C@H]2[C@H](CCC(=O)N2CCc2ccccc2)C1 | -11% | 1.74 |
| CCC(C)C(NC(=O)c1ccc(Cl)cc1)C(=O)N1CCN(c2cnccn2)CC1 (stereo unspecified) | 2% | -0.35 |
| Cc1ccc(N2CCCN(Cc3c(F)cccc3F)C2=O)c(NC(=O)Nc2ccccc2)c1 | -10% | 1.44 |
| Cc1ccc(NC(C)C)c(C(=O)N(C)C)c1 | -6% | 0.89 |
| COc1ccc(C(=O)O[C@H](COc2ccc(Cl)cc2)CN2CCCC2)cc1 | 7% | -1.13 |
| COc1cc(Cl)c(S(=O)(=O)N(C)Cc2nnc[nH]2)cc1OC | -6% | 0.96 |
| Cc1cnc(N(C)C[C@H](C)C#N)nc1C | -2% | 0.22 |
| Cc1cc(C)nc(N2CC3CCC2C3)n1 (stereo unspecified) | 3% | -0.5 |
| COc1ccc(NC(=O)CN2C(=O)C3CCC(c4ccccc4)CC3C2=O)cc1 (stereo unspecified) | -5% | 0.76 |
| Cc1nccc(N2CCC3(CC2)c2nc[nH]c2CCN3S(C)(=O)=O)n1 | -1% | 0.25 |
| CCN1CCN(S(=O)(=O)c2ccc(OC)c(C(=O)N3CCCCCC3)c2)CC1 | -6% | 0.69 |
| Cc1nc[nH]c1CN1C[C@H]2CC[C@@H](C1)N(CC(C)(C)N1CCOCC1)C2 | -5% | 0.5 |
| CC(C)Cc1nc(O)c(C#N)c2c1CCCC2 | -5% | 0.6 |
| C[C@@H]1CN(C(=O)OC(C)(C)C)C[C@H]1C(=O)NCC1(C2CC2)CC1 | -11% | 2.13 |
| Clc1ccc(CN2CCC[C@@H]2Cn2cncn2)s1 | -6% | 0.53 |
